Laboratory results taken from the RNAGym collection of RNA variant scans (doi:10.1073/pnas.2313332121).
Variants at the floor of the assay are shown more often than the library holds them.

B1: TPR 5TU (parent)
chain: GGAUCUUCUCGAUCUAACAAAAAAGACAAAUCUGCCACAAAGCUUGAGAGCAUCUUCGGAUGCAGAGGCGGCAGCCUUCGGUGGCGCGAUAGCGCCAACGUUCUCAACUAUGACACGCAAAACGCGUGCUCCGUUGAAUGGAGUUUAUCAUG

Variants of: B1
Test: polymerase ribozyme fitness, log enrichment relative to wild type (log ratio); higher = more active; in vitro selection for triplet polymerase activity
How it was run: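 The heterodimeric triplet polymerase ribozyme's subunits were each mutagenized into PCR-built libraries and transcribed. Every library was selected once, in triplicate, by annealing with a biotinylated primer, the partner subunit and triplets, incubating frozen at −7 °C, gel-excising extended constructs, capturing on streptavidin beads and running RT-PCR. Input and output libraries were Illumina-sequenced, with genotypes kept only at ≥10 input reads and ≥1 read per output. Fitness, from inverse-variance-weighted replicate averages, is the base-2 logarithm of genotype enrichment over wild-type enrichment.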

| Variant | polymerase ribozyme fitness (log ratio) |
| --- | --- |
| U53A U77C G92U U109C A122C G126U C149U | ≤ -4.2 |
| C54U G84A A97U | -1.27 |
| U53A U61G C103U A107G | ≤ -4.2 |
| U55A C72G A113C G152A | ≤ -4.2 |
| C54U A60U C87U G94U U101G U109C C116U C118U G152C | ≤ -4.2 |
| C54U G59U C108A U135G U139A | ≤ -4.2 |
| C54U G83U C85A U90G | ≤ -4.2 |
| U53A C95A C125U | -1.7 |
| U53A C76A | -2.19 |
| U55A A66G G92U A119C | ≤ -4.2 |
| U55A C63A | -0.431 |
| U53A G141U | 0.504 |
| U55A G58C U61G G62A A66G G81C A113C C132G | ≤ -4.2 |
| A52U G84U G86A A91U A121U | ≤ -4.2 |
| U53G C57A C85U A115U A121C | -2.93 |
| U53A G83C | -2.61 |
| C54U G84A U146G | -1.56 |
| U55A C57U G68U C85G A119G C125U | ≤ -4.2 |
| U55A G58A A89C A120U U134C | 0.161 |
| U53A C54A G70U C85G G124C | ≤ -4.2 |
| U53A G84C C99A U111A | ≤ -4.2 |
| U53A G80C C93U U148C | ≤ -4.2 |
| C54U G84A A110U | ≤ -4.2 |
| A52U C116A | 0.243 |

| Variant | polymerase ribozyme fitness (log ratio) |
| --- | --- |
| U53A A64G A91G C108U | ≤ -4.2 |
| U53G U56A U61A G88U G117A G124U | ≤ -4.2 |
| U55A A115U | -1.89 |
| A52U U55A A66G C75G G84C U146G | ≤ -4.2 |
| U53G G58A G59A U82G G88U A142G | ≤ -4.2 |
| C54A C57G U82G C85A A120C G136A U144A U148A | ≤ -4.2 |
| C54A C57G U90G U139A G140U U146A | ≤ -4.2 |
| A52U G83A C118U A121C | -2.33 |
| U55A C76A C149A | ≤ -4.2 |
| U55A U56A C87A | ≤ -4.2 |
| C54U C118U C125U U139A | ≤ -4.2 |
| C54A U55G G80C G84U C105G G126C | ≤ -4.2 |
| C54G G70C C85U A110C | ≤ -4.2 |
| U53G C54U C96G A113C G140U | ≤ -4.2 |
| U53G U90G G100A G124A U144C | ≤ -4.2 |
| C54U C105A C131G | ≤ -4.2 |
| C54G C85A | -3.85 |
| C54U G141A U151G | ≤ -4.2 |
| U55A C57U | 0.643 |
| U53C C93G C99G C118A G126A U146G | ≤ -4.2 |
| U53G A66G C93G C108G | ≤ -4.2 |
| A52U G136A | -0.592 |
| C54A G88U U134C | ≤ -4.2 |
| U53C C76A A107G C108A C149U | ≤ -4.2 |

| Variant | polymerase ribozyme fitness (log ratio) |
| --- | --- |
| U53A G59C C85U U135A | -0.238 |
| C54U C87A A89C C108U G141A G143C | ≤ -4.2 |
| U53A G81U G88A A115G A147U | ≤ -4.2 |
| U53A C54A G74A C76U G88A C95G A121U U146C | ≤ -4.2 |
| C54G U82A | -1.98 |
| U53A C93U G140C | ≤ -4.2 |
| C54G C85U A121U C131A G136U A137G | ≤ -4.2 |
| U55A G141A | -0.587 |
| U53G C72G C108G C116A | ≤ -4.2 |
| C54U C76G C85A U139G G143A | ≤ -4.2 |
| C54U G65U A73U A91U C108G | ≤ -4.2 |
| U55A C87U | -1.1 |
| U55A G84U G152C | -3.48 |
| U53G A66G G94C G117U | ≤ -4.2 |
| C54U G88C C96G A138C G141A | ≤ -4.2 |
| C54A A122U C123A G133C G143C A150G | ≤ -4.2 |
| C54U U148A | -3.74 |
| C54A A64U U90C A91C | ≤ -4.2 |
| C54A C108G U139A | ≤ -4.2 |
| C54A C87G A115U U148C | ≤ -4.2 |
| U55A C57U C87G C125A | ≤ -4.2 |
| A52U U56A C79G C105A | ≤ -4.2 |
| C54A C69A G84A G88A | ≤ -4.2 |
| C54A A89C C132G | ≤ -4.2 |

| Variant | polymerase ribozyme fitness (log ratio) |
| --- | --- |
| U55A C96A A119C A150U U151G | ≤ -4.2 |
| U53A C79U C93U A97U C108U C149A | ≤ -4.2 |
| U53A G88C A142U | ≤ -4.2 |
| C54G C57A A66C A91U G92A U104C A120C G136U G140A | ≤ -4.2 |
| C54U C63G A66C G68U C69G C87G C96G | ≤ -4.2 |
| U55A G80C U144G | ≤ -4.2 |
| U53A A122G U134A | -3.02 |
| U53A C57A U151G | ≤ -4.2 |
| U55A C57U C87G G117U C118G U151A | ≤ -4.2 |
| A52U G67U C85A C125G | ≤ -4.2 |
| C54U G84A A89G A98U G133U A142G | ≤ -4.2 |
| C54U C76A G83A A89U A113U G124C | ≤ -4.2 |
| C54A C69U C72U A142C | ≤ -4.2 |
| U53A G59C C76G C85U A89C A97C A107U G117U G133A U139G | ≤ -4.2 |
| U53A C54G | -2.2 |
| U55A A64C U90A A113U A147C | ≤ -4.2 |
| C54U G67A A91U A97G G100A U101C U109G | ≤ -4.2 |
| C54U C79G C85U U148A | ≤ -4.2 |
| C54G C79G | ≤ -4.2 |
| U53A G65C C87A G92A C116U | ≤ -4.2 |
| C54U C87U A115U | -1.85 |
| C54U C63U G88C A107U G152U | ≤ -4.2 |
| U53A G68A A73G C85U C114U A115U | ≤ -4.2 |
| U53C C57G C125U G143A | -3.67 |

| Variant | polymerase ribozyme fitness (log ratio) |
| --- | --- |
| U53A G94A | -1.61 |
| U55A G58C G92A C103A | ≤ -4.2 |
| C54A G81U U82A C108A C123U U134G A137C | ≤ -4.2 |
| C54U A64G G68A U77C G83A G88U U90G C132U U139G | ≤ -4.2 |
| C54U C95G A98G | -2.01 |
| C54U U55A C79G C93U A98G C116G A122U | ≤ -4.2 |
| C54U G67U U139G A150G | ≤ -4.2 |
| U53A G80A U109A C123U A142G | -3.11 |
| C54A C95A G140A U146G | ≤ -4.2 |
| C54G G80U A115G | ≤ -4.2 |
| C54G C57U A73U C96G | ≤ -4.2 |
| C54U U102G U144A A150U | ≤ -4.2 |
| A52U G80A A89G G94A A110U U135G | ≤ -4.2 |
| C54U A91U U102G | ≤ -4.2 |
| U53G A64G C76A | ≤ -4.2 |
| U53A G84A U151C | ≤ -4.2 |
| C54G G68C U109G C132U G133U | ≤ -4.2 |
| C54U G81A C87G | ≤ -4.2 |
| C54G A91U A147G U148G | ≤ -4.2 |
| C54G G86U G100C G140C U144A | ≤ -4.2 |
| U53G U55A U78A C93U A142C U148C | ≤ -4.2 |
| C54A C99A G141U | -2.47 |
| A52U C96A | -2.92 |
| U53A C57U C93U U111G G112C G136A U146A | ≤ -4.2 |

| Variant | polymerase ribozyme fitness (log ratio) |
| --- | --- |
| U55A C63G C76U U78G G92C G136U G141C | ≤ -4.2 |
| C54A U90A | ≤ -4.2 |
| U55A A60G A137C | -3 |
| C54G C96U C123G | -1.53 |
| C54A G59C G84A | -0.321 |
| U55A A98G C108G G140U | ≤ -4.2 |
| U55A G81C C118G G141A U146A | -2.94 |
| U53A G100U | -3.41 |
| C54G G58C C75G G94A | ≤ -4.2 |
| C54A C76A G83U | ≤ -4.2 |
| U53A C96U C99U G143C | ≤ -4.2 |
| C54A C95U A119G C125G A150G | ≤ -4.2 |
| C54A A66U G86C A89C C96A | ≤ -4.2 |
| C54U C69A G71A U82G C99U A110U A122U | ≤ -4.2 |
| U53A G59A G83A C116U C125A U146G | ≤ -4.2 |
| C54U A89G C95A U148G | -4.18 |
| C54U C95G | -1.07 |
| C54U C95U | -0.851 |
| U55A G83A G86C A98G C149U | ≤ -4.2 |
| U53A G58A A73U C75A A89U G92U A110U G126U G140A A147U | ≤ -4.2 |
| A52U U53G G84U C85A U148A | ≤ -4.2 |
| U53A G62A G86U | -2.24 |
| U53A C79U U101A | ≤ -4.2 |
| C54U U61A G84U C108G G140U | ≤ -4.2 |

| Variant | polymerase ribozyme fitness (log ratio) |
| --- | --- |
| U55A A113C | -2.92 |
| C54A U56A G68U U82G G83C G133C | ≤ -4.2 |
| U53A C79A A91U | ≤ -4.2 |
| C54U U55G G84A A89U U90G A97U A147U U151C | ≤ -4.2 |
| U55A G58A C85A C131U | 0.931 |
| C54A U104A C131U | -2.14 |
| A52U C96U A107G G136U | ≤ -4.2 |
| U53A A66U U78A C87U G94C | ≤ -4.2 |
| U55A C103U | -0.726 |
| C54U C96U U144G | 0.217 |
| U53A A97U C132U G133C U139C | ≤ -4.2 |
| C54U A73G U102G A121U | ≤ -4.2 |
| C54G U55A A89U C118G A142C | -3.87 |
| U55A C96G A115U A119G | -2.42 |
| A52U G67A G68A G83A C103G | ≤ -4.2 |
| C54A A73G C85G C99U U148C | ≤ -4.2 |
| U55A C85A C105U U134A | ≤ -4.2 |
| U55A G83U | -1.69 |
| C54U G68A C69U G81A A91G C103G A110G | ≤ -4.2 |
| C54A G141A | -0.156 |
| C54U G70A G83A U90A G143U | ≤ -4.2 |
| C54U C85G | -2.49 |
| U53A U55A A60U A66G C69G U78A C93U A150U | ≤ -4.2 |
